{
  "source": "paper PMC4336329",
  "about": "(PLoS ONE, 2015)",
  "note": "Among all 310,000 compounds or so, about 14,000 (4.5%) showed an effect of 50% or more. Effects have a minus sign here. This is one part of the list.",
  "data": [
    {"target": "human ether-à-go-go-related gene (hERG) potassium channel (human, UniProt Q12809)", "sequence (Q12809 whole entry, looked up)": "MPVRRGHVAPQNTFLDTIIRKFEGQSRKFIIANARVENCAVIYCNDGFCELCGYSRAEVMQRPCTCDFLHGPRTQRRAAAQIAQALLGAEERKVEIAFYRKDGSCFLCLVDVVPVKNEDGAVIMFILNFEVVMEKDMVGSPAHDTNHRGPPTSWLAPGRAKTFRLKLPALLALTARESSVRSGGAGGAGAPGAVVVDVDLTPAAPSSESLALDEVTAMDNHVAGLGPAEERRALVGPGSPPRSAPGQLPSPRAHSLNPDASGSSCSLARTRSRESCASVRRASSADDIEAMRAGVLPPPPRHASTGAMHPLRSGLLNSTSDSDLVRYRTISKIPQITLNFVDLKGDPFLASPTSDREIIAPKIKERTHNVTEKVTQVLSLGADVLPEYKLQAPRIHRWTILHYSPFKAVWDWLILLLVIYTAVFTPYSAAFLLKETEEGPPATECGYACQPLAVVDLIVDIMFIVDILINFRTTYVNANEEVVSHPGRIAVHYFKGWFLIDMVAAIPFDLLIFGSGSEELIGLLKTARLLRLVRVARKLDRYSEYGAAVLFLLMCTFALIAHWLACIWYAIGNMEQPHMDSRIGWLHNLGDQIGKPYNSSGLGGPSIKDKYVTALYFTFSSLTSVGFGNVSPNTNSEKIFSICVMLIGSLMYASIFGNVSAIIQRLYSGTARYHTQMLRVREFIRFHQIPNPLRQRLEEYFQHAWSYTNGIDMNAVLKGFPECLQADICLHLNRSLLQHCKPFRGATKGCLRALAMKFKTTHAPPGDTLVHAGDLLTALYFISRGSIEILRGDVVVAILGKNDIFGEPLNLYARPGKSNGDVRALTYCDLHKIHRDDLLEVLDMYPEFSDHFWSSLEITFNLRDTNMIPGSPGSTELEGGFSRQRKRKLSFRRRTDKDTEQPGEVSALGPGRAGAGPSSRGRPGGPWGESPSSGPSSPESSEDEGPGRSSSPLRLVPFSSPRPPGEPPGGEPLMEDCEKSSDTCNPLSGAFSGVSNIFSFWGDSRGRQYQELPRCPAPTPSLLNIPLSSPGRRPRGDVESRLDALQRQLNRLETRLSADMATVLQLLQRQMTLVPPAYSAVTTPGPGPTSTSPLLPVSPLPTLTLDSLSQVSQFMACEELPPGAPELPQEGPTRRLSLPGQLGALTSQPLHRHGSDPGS", "test": "primary screen, population patch clamp on CHO cells stably expressing hERG", "units": {"hERG current change (%, negative = inhibition) at 10uM": "%"}, "values": [
      {"compound": "CCC1CCCCN1C(=S)Nc1ccc(C(C)=O)cc1", "note": "(stereo not drawn);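 also: peak tail current of the secondary pulse compared with the same well before compound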", "hERG current change (%, negative = inhibition) at 10uM": -0.512},
      {"compound": "CCCC(C)NC(=O)C1CCN(C(=O)C2CC(=O)N(c3ccc(C)cc3)C2)CC1", "note": "(stereo not drawn)", "hERG current change (%, negative = inhibition) at 10uM": -3.88},
      {"compound": "COc1ccccc1CN1C[C@@H]2C[C@@H](c3ccc(Cl)cc3)N3CCC[C@@]23C1=O", "hERG current change (%, negative = inhibition) at 10uM": -44.1},
      {"compound": "CCc1nn(C)c(N)c1C.Cl", "hERG current change (%, negative = inhibition) at 10uM": 12.7},
      {"compound": "CCOC(=O)c1c(NC(=O)CN2CCCCC2)sc2c1CCN(C(=O)OCC)C2", "hERG current change (%, negative = inhibition) at 10uM": -10.9},
      {"compound": "O=C(Nc1ccccn1)C12CC3CC(CC(C3)C1)C2", "hERG current change (%, negative = inhibition) at 10uM": -15},
      {"compound": "Cc1ccc(NC(=S)NNc2ncc(C(F)(F)F)cc2Cl)cc1", "hERG current change (%, negative = inhibition) at 10uM": 5.27},
      {"compound": "CSCCC(NC(=O)c1ccc(Cl)cc1Cl)C(=O)OCC(N)=O", "note": "(stereo not drawn)", "hERG current change (%, negative = inhibition) at 10uM": -5.4},
      {"compound": "CSc1nsc(SC)c1C(=O)O", "hERG current change (%, negative = inhibition) at 10uM": 30.5},
      {"compound": "CCOC1OC(=O)C(Cl)=C1Nc1ccc(C)cc1C", "note": "(stereo not drawn)", "hERG current change (%, negative = inhibition) at 10uM": -0.98},
      {"compound": "O=C1/C(=N\\S(=O)(=O)c2cccs2)C([n+]2cccc(Cc3ccccc3)c2)=C([O-])c2ccccc21", "hERG current change (%, negative = inhibition) at 10uM": 1.93},
      {"compound": "COC(=O)c1c(N)sc(C(=O)NCCc2ccccc2)c1C", "hERG current change (%, negative = inhibition) at 10uM": 4.54},
      {"compound": "O=C(N/N=C/c1ccc(O)c(O)c1)N/N=C/c1ccc(O)c(O)c1", "hERG current change (%, negative = inhibition) at 10uM": 7.82},
      {"compound": "Cc1[nH]c(=O)[nH]c(=O)c1/C=N/NC(=O)[C@@H](NC(=O)OC(C)(C)C)C(C)C", "hERG current change (%, negative = inhibition) at 10uM": -0.509},
      {"compound": "Cc1[nH]c2ccccc2c1/C=C/c1nc2ccccc2c(=O)n1-c1ccc([N+](=O)[O-])cc1", "hERG current change (%, negative = inhibition) at 10uM": 5.88},
      {"compound": "CC(C)Oc1ccc(N2CC(C(=O)Nc3ccc4c(c3)OCO4)CC2=O)cc1", "note": "(stereo not drawn)", "hERG current change (%, negative = inhibition) at 10uM": 2.72},
      {"compound": "CC(CCc1ccccc1)NC(=O)CCC1CCCC1", "note": "(stereo not drawn)", "hERG current change (%, negative = inhibition) at 10uM": -24.5},
      {"compound": "CSc1nsc(SCC(=O)Nc2c(C)n(C)n(-c3ccccc3)c2=O)n1", "hERG current change (%, negative = inhibition) at 10uM": 2.25},
      {"compound": "CCOC(=O)C1CCCN(C(=O)c2cc(-c3ccc(C)cc3)nc3ccccc23)C1", "note": "(stereo not drawn)", "hERG current change (%, negative = inhibition) at 10uM": -37.6},
      {"compound": "Br.C=CCn1c(=N)n(CC(=O)c2ccc(OC)cc2)c2ccccc21", "hERG current change (%, negative = inhibition) at 10uM": -43.7},
      {"compound": "COc1ccc(-c2cc(C(F)(F)F)nc(SCC(=O)Nc3cc(C)on3)n2)cc1OC", "hERG current change (%, negative = inhibition) at 10uM": 10},
      {"compound": "CCCOc1ccc(C(=O)NNC(=S)NC(=O)c2cc(-c3ccc(Cl)cc3)nc3ccccc23)cc1", "hERG current change (%, negative = inhibition) at 10uM": 5.85},
      {"compound": "Cc1cc(Cl)ccc1OCC(O)CN1C(C)CCCC1C.Cl", "note": "(stereo not drawn)", "hERG current change (%, negative = inhibition) at 10uM": -73.2},
      {"compound": "Cc1cc(C)c(C#N)c(SCC(=O)Nc2ccc(S(=O)(=O)Nc3ncccn3)cc2)n1", "hERG current change (%, negative = inhibition) at 10uM": 9.15}
    ]}
  ]
}
